Reference: patent US20190359693A1

B1: MD2609 (Fc fusion)
chain: EVQLVESGGGLVQPGGSLKLSCAASGFTFSTSWMYWLRQAPGKGLEWVSVINTDGGTYYADSVKDRFTISRDNAKDTLYLQMSSLKSEDTAVYYCAKDWGGPEPTRGQGTQVTVSSAAA[gap - human IgG1 Fc]
B2: MD2632 (Fc fusion)
chain: EVQLVESGGGLVQPGGSLRLSCAVSISIFDIYAMDWYRQAPGKQRDLVATSFRDGSTNYADSVKGRFTISRDNAKNTLYLQMNSLKPEDTAVYLCHVSLYRDPLGVAGGMGVYWGKGALVTVSSGGGGSGGGGSEVQLVESGGGLVQPGGSLRLSCAVSISIFDIYAMDWYRQAPGKQRDLVATSFRDGSTNYADSVKGRFTISRDNAKNTLYLQMNSLKPEDTAVYLCHVSLYRDPLGVAGGMGVYWGKGALVTVSSGGGGSGGGGSEVQLVESGGGLVQAGGSLKLSCAASGRTYAMGWFRQAPGKEREFVAHINALGTRTYYSDSVKGRFTISRDNAKNTEYLEMNNLKPEDTAVYYCTAQGQWRAAPVAVAAEYEFWGQGTQVTVSS[gap - human IgG1 Fc]GGGGSGGGGSEVQLVESGGGLVQPGGSLRLSCAATGFTLENKAIGWFRQTPGSEREGVLCISKSGSWTYYTDSMRGRFTISRDNAENTVYLQMDSLKPEDTAVYYCATTTAGGGLCWDGTTFSRLASSWGQGTQVTVSSGGGGSGGGGSEVQLVESGGGLVQPGGSLKLSCAASGFTFSTSWMYWLRQAPGKGLEWVSVINTDGGTYYADSVKDRFTISRDNAKDTLYLQMSSLKSEDTAVYYCAKDWGGPEPTRGQGTQVTVSS
B3: MD2634 (Fc fusion)
chain: EVQLVESGGGLVQAGGSLKLSCAASGRTYAMGWFRQAPGKEREFVAHINALGTRTYYSDSVKGRFTISRDNAKNTEYLEMNNLKPEDTAVYYCTAQGQWRAAPVAVAAEYEFWGQGTQVTVSSGGGGSGGGGSEVQLVESGGGLVQPGGSLRLSCAVSISIFDIYAMDWYRQAPGKQRDLVATSFRDGSTNYADSVKGRFTISRDNAKNTLYLQMNSLKPEDTAVYLCHVSLYRDPLGVAGGMGVYWGKGALVTVSSGGGGSGGGGSEVQLVESGGGLVQPGGSLRLSCAVSISIFDIYAMDWYRQAPGKQRDLVATSFRDGSTNYADSVKGRFTISRDNAKNTLYLQMNSLKPEDTAVYLCHVSLYRDPLGVAGGMGVYWGKGALVTVSS[gap - human IgG1 Fc]GGGGSGGGGSEVQLVESGGGLVQPGGSLRLSCAATGFTLENKAIGWFRQTPGSEREGVLCISKSGSWTYYTDSMRGRFTISRDNAENTVYLQMDSLKPEDTAVYYCATTTAGGGLCWDGTTFSRLASSWGQGTQVTVSSGGGGSGGGGSEVQLVESGGGLVQPGGSLKLSCAASGFTFSTSWMYWLRQAPGKGLEWVSVINTDGGTYYADSVKDRFTISRDNAKDTLYLQMSSLKSEDTAVYYCAKDWGGPEPTRGQGTQVTVSS
B4: FM1B74.1 (Fc fusion)
chain 1: EVQLLESGGGLVQPGGSLRLSCAASGRTYAMGWFRQAPGKEREFVAAINALGTRTYYADSVKGRFTISRDNSKNTLYLQMNSLRAEDTAVYYCTAQGQWRAAPVAVAAEYEFWGQGTLVTVSSGGGGSGGGGSQVQLVESGGGVVQPGGSLRLSCAASISIFDIYAMDWYRQAPGKQRELVAVSFRDGSTYYADSVKGRFTISRDNSKNTLYLQMNSLRAEDTAVYYCHVSLYRDPLGVAGGIGVYWGQGTLVTVSS[gap - human IgG1 Fc with K409R (EU numbers)]
chain 2: EVQLLESGGGLVQPGGSLRLSCAASGFTLENKAIGWFRQAPGKEREGVLCISKSGSWTYYADSVKGRFTISRDNSKNTVYLQMNSLRPEDTAVYYCATTTAGGGLCWDGTTFSRLASSWGQGTLVTVSSGGGGSGGGGSEVQLVESGGGLVQPGGSLRLSCAASGFTFSTSWMYWLRQAPGKGLEWVSVINTDGGTYYADSVKGRFTISRDNSKNTLYLQMNSLRAEDTAVYYCAKDWGGPEPTRGQGTLVTVSS[gap - human IgG1 Fc with changes]
B5: FM1B75.1 (Fc fusion)
chain 1: B4 chain 1
chain 2: EVQLVESGGGLVQPGGSLRLSCAISGLSLDTYAVGWFRQAPGKEREGVSCISSGHGMTYYADSVKGRFTISTDNSKNTVYLQMNSLRAEDTAVYYCATESRYYCSDNWPAPQRYIYWGQGTLVTVSSGGGGSGGGGSEVQLVESGGGLVQPGGSLRLSCAASGFTFSTSWMYWLRQAPGKGLEWVSVINTDGGTYYADSVKGRFTISRDNSKNTLYLQMNSLRAEDTAVYYCAKDWGGPEPTRGQGTLVTVSS[gap - human IgG1 Fc with changes]
B6: FM1B70.1 (Fc fusion)
chain 1: QVQLVESGGGVVQPGGSLRLSCAASISIFDIYAMDWYRQAPGKQRELVAVSFRDGSTYYADSVKGRFTISRDNSKNTLYLQMNSLRAEDTAVYYCHVSLYRDPLGVAGGIGVYWGQGTLVTVSSGGGGSGGGGSEVQLVESGGGLVQPGGSLRLSCAASGRTLSIYSMGWFRQAPGKEREFVATIGWNSGRTFYPDSVKGRFTISRDNSKNTLYLQMNSLRAEDTAVYYCAAAKGPLRLSSQADYWGQGTLVTVSS[gap - human IgG1 Fc with K409R (EU numbers)]
chain 2: EVQLVESGGGLVQPGGSLRLSCAASGFTFSTSWMYWLRQAPGKGLEWVSVINTDGGTYYADSVKGRFTISRDNSKNTLYLQMNSLRAEDTAVYYCAKDWGGPEPTRGQGTLVTVSSGGGGSGGGGSEVQLLESGGGLVQPGGSLRLSCAASGFTLENKAIGWFRQAPGKEREGVLCISKSGSWTYYADSVKGRFTISRDNSKNTVYLQMNSLRPEDTAVYYCATTTAGGGLCWDGTTFSRLASSWGQGTLVTVSS[gap - human IgG1 Fc with changes]
B7: FM1B73.1 (Fc fusion)
chain 1: B4 chain 1
chain 2: EVQLVESGGGLVQPGGSLRLSCAASGFTFSTSWMYWLRQAPGKGLEWVSVINTDGGTYYADSVKGRFTISRDNSKNTLYLQMNSLRAEDTAVYYCAKDWGGPEPTRGQGTLVTVSSGGGGSGGGGSEVQLLESGGGLVQPGGSLRLSCAASGFTLENKAIGWFRQAPGKEREGVLCISKSGSWTYYADSVKGRFTISRDNSKNTVYLQMNSLRPEDTAVYYCATTTAGGGLCWDGTTFSRLASSWGQGTLVTVSS[gap - human IgG1 Fc with changes]
B8: FM1B71.1 (Fc fusion)
chain 1: B6 chain 1
chain 2: EVQLLESGGGLVQPGGSLRLSCAASGFTLENKAIGWFRQAPGKEREGVLCISKSGSWTYYADSVKGRFTISRDNSKNTVYLQMNSLRPEDTAVYYCATTTAGGGLCWDGTTFSRLASSWGQGTLVTVSSGGGGSGGGGSEVQLVESGGGLVQPGGSLRLSCAASGFTFSTSWMYWLRQAPGKGLEWVSVINTDGGTYYADSVKGRFTISRDNSKNTLYLQMNSLRAEDTAVYYCAKDWGGPEPTRGQGTLVTVSS[gap - human IgG1 Fc with changes]
B9: FM1B72.1 (Fc fusion)
chain 1: B6 chain 1
chain 2: EVQLVESGGGLVQPGGSLRLSCAISGLSLDTYAVGWFRQAPGKEREGVSCISSGHGMTYYADSVKGRFTISTDNSKNTVYLQMNSLRAEDTAVYYCATESRYYCSDNWPAPQRYIYWGQGTLVTVSSGGGGSGGGGSEVQLVESGGGLVQPGGSLRLSCAASGFTFSTSWMYWLRQAPGKGLEWVSVINTDGGTYYADSVKGRFTISRDNSKNTLYLQMNSLRAEDTAVYYCAKDWGGPEPTRGQGTLVTVSS[gap - human IgG1 Fc with changes]
B10: MD2626 (Fc fusion)
chain: EVQLVESGGGLVQPGGSLRLSCAVSISIFDIYAMDWYRQAPGKQRDLVATSFRDGSTNYADSVKGRFTISRDNAKNTLYLQMNSLKPEDTAVYLCHVSLYRDPLGVAGGMGVYWGKGALVTVSSAAA[gap - human IgG1 Fc]GGGGSGGGGSGGGGSGGGGSGGGGSGGGGSEVQLVESGGGLVQPGGSLRLSCAATGFTLENKAIGWFRQTPGSEREGVLCISKSGSWTYYTDSMRGRFTISRDNAENTVYLQMDSLKPEDTAVYYCATTTAGGGLCWDGTTFSRLASSWGQGTQVTVSS

Target: hemagglutinin (HA) of influenza virus B/Florida/04/06 (Yamagata) (influenza B virus)
Test: cell-based or functional assay

| Binder | average neutralization titer [nM] |
| --- | --- |
| B1 | 1.4 |

Target: hemagglutinin (HA) of influenza A/WF/HK/MPA892/06 (H4) (influenza A virus)
Test: cell-based or functional assay

| Binder | Average neutralization titers [nM] |
| --- | --- |
| B2 | 7 |
| B3 | 2.5 |

Target: hemagglutinin (HA) of influenza A/Vietnam/1194/04 (H5N1) (influenza A virus)
Test: cell-based or functional assay

| Binder | Average neutralization titers [nM] |
| --- | --- |
| B2 | 6.6 |
| B3 | 7.9 |

Target: hemagglutinin (HA) of influenza A/Brisbane/10/07 (H3N2) (influenza A virus A/Brisbane/10/07 (H3N2))
Test: cell-based or functional assay

| Binder | Average neutralization titers [nM] |
| --- | --- |
| B4 | 20 |
| B5 | 16 |
| B6 | 16 |
| B7 | 16 |
| B8 | 32 |
| B9 | 16 |

Target: hemagglutinin (HA) of influenza B/Harbin/7/94 (Yamagata) (influenza B virus)
Test: cell-based or functional assay

| Binder | Average neutralization titers [nM] |
| --- | --- |
| B2 | 2 |
| B3 | 1.4 |

Target: hemagglutinin (HA) of influenza B/Malaysia/2506/04 (Victoria) (influenza B virus)
Test: cell-based or functional assay

| Binder | Average neutralization titers [nM] |
| --- | --- |
| B2 | 4.7 |
| B3 | 3.3 |

Target: hemagglutinin (HA) of influenza A/New Caledonia/20/99 (H1N1) (influenza A virus)
Test: cell-based or functional assay

| Binder | Average neutralization titers [nM] |
| --- | --- |
| B2 | 4.7 |
| B3 | 9.3 |

Target: hemagglutinin (HA) of influenza B/Florida/04/06 (Yamagata) (influenza B virus)
Test: cell-based or functional assay

| Binder | Average neutralization titers [nM] |
| --- | --- |
| B2 | 1.2 |
| B3 | 1.5 |

Target: hemagglutinin (HA) of influenza B/Brisbane/60/08 (Victoria lineage) (influenza B virus B/Brisbane/60/08)
Test: cell-based or functional assay

| Binder | Average neutralization titers [nM] |
| --- | --- |
| B4 | 6 |
| B5 | 3 |
| B6 | 6 |
| B7 | 5 |
| B8 | 6 |
| B9 | 3 |

Target: hemagglutinin (HA) of influenza A/Vietnam/1194/04 (H5N1) (influenza A virus A/Vietnam/1194/04 (H5N1))
Test: cell-based or functional assay

| Binder | Average neutralization titers [nM] |
| --- | --- |
| B4 | 101 |
| B5 | 101 |
| B6 | 16 |
| B7 | 101 |
| B8 | 26 |
| B9 | 16 |

Target: hemagglutinin (HA) of influenza virus H3N2 A/Wisconsin/67/05 (influenza A virus)
Test: cell-based or functional assay

| Binder | average neutralization titer [nM] |
| --- | --- |
| B10 | 47.8 |

Target: hemagglutinin (HA) of influenza B/Harbin/7/94 (Yamagata lineage) (influenza B virus B/Harbin/7/94)
Test: cell-based or functional assay

| Binder | Average neutralization titers [nM] |
| --- | --- |
| B4 | 6 |
| B5 | 5 |
| B6 | 5 |
| B7 | 6 |
| B8 | 6 |
| B9 | 6 |

Target: hemagglutinin (HA) of influenza A/California/07/09 (H1N1) (influenza A virus)
Test: cell-based or functional assay

| Binder | Average neutralization titers [nM] |
| --- | --- |
| B2 | 1.5 |
| B3 | 2.1 |

Target: hemagglutinin (HA) of influenza A/Wisconsin/67/05 (H3N2) (influenza A virus)
Test: cell-based or functional assay

| Binder | Average neutralization titers [nM] |
| --- | --- |
| B2 | 11.1 |
| B3 | 22.2 |

Target: hemagglutinin (HA) of influenza A/New Caledonia/20/99 (H1N1) (influenza A virus A/New Caledonia/20/99 (H1N1))
Test: cell-based or functional assay

| Binder | Average neutralization titers [nM] |
| --- | --- |
| B4 | 80 |
| B5 | 80 |
| B6 | 6 |
| B7 | 101 |
| B8 | 16 |
| B9 | 10 |
